# Measurements from article PMC6919601, “Identification of Plasmodium dipeptidyl aminopeptidase allosteric inhibitors by high throughput screening” (PLoS ONE, 2019).
# Hit rate of the full screen: of about 110,000 compounds, about 230 (0.21%) showed an effect of 50% or more. The list shows a part of the results.
# Target: DPAP1 (Plasmodium falciparum, UniProt Q8IIJ9)
# Experiment: primary screen, percent inhibition; read by cleavage of a fluorogenic dipeptide substrate; higher = more effect of the substance
# Parameters: species or system P. falciparum D10 trophozoite lysates; single well
# 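Also: 30 min substrate incubation versus DMSO and 10 µM JCP410 controls.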
# DPAP1, sequence (Q8IIJ9 whole entry, looked up): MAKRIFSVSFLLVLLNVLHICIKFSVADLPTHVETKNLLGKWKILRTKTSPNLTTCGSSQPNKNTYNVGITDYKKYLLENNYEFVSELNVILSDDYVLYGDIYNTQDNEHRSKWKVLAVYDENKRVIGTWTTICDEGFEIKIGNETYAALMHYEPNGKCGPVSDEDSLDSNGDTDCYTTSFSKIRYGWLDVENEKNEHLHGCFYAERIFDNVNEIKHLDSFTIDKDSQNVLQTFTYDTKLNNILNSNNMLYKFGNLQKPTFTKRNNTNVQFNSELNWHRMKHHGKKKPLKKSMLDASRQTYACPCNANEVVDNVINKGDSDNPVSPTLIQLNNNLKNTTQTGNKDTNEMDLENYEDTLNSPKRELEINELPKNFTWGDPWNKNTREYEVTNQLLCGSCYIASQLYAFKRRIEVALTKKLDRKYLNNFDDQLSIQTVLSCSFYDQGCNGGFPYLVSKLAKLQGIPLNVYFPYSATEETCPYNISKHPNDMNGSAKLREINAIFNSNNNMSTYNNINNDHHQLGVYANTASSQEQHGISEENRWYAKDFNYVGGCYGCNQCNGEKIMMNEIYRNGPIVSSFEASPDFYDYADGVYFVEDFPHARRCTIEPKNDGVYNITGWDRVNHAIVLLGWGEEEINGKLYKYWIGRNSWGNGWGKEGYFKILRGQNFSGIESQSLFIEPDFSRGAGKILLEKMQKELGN
row,Compound,% Inhibition @ 10 uM [%]
1,O=C(COc1ccc(S(=O)(=O)N2CCCC2)cc1)Nc1ccc(Cl)c(C(F)(F)F)c1,-0.795
2,O=C(O)COc1ccc(/C=C2/NC(=O)N(Cc3ccc(F)cc3)C2=O)cc1Br,-1.38
3,Cc1ccnc(NC(=O)c2nn(C)c3c2CSc2ccccc2-3)c1,0.00665
4,CCc1nc2ccccc2c(NC(=O)CN2CCOCC2)c1C,-6.6
5,Cc1ccccc1OCC(O)Cn1c(SCCO)nc2c1c(=O)[nH]c(=O)n2C (stereo not drawn),1.8
6,Cc1nc2c(c(C)nn2C(C)(C)C)c(C)c1CCC(=O)N1CCN(Cc2ccccc2)CC1,-6.09
7,Cc1cc(NC(=O)c2cc3ccccc3c(=O)o2)no1,-1.52
8,O=C(NCc1ccc(F)cc1)c1cc2n(n1)C(C(F)(F)F)CC(C1CC1)N2 (stereo not drawn),-1.1
9,O=C(CCNS(=O)(=O)c1ccc2nc(O)ccc2c1)NCc1ccco1,-2.84
10,O=C1C(=O)N(CN2CCOCC2)c2ccccc21,1.29
11,CCOC(=O)Nc1ccc2c(c1)N(C(=O)C(C)N1CCCCC1)c1ccccc1CC2 (stereo not drawn),-4.26
12,CCCCN1COc2ccc3c4c(c(=O)oc3c2C1)CCCC4,0.0654
13,NC(=O)C1(N2CCCCC2)CCN(c2c(-c3ccccc3)c(=O)c2=O)CC1,2.47
14,CCOc1ccc(C(=O)NCc2ccc(Cl)cc2)cc1,-2.17
15,CCOC(=O)C1=CN(C)C=C(C(=O)OCC)C1c1ccc(OC)cc1,-1.48
16,CCN(CC)S(=O)(=O)c1ccc(Sc2ccc(Br)cc2)c(C(=O)O)c1,-1.69
17,CC1=NN2C(=N)/C(=C/c3ccc(OCCOc4ccccc4Cl)cc3)C(=O)N=C2S1,0.484
18,Sc1nnc(-c2ccccc2)n1C1CCCCC1,13.2
19,Cc1ccc2occ(CN3CCC(N4CCCCC4)CC3)c(=O)c2c1,-0.0648
20,CCN(CC)CCCNC(=O)c1ccccc1C,2.46
21,N#Cc1cn(CC(=O)NCc2ccc3c(c2)OCO3)c2ccccc12,-8.3
22,CC(C)C(=O)Nc1ccc(NC(=O)c2cc3ccccc3o2)cc1,-4.12
23,Cc1ccccc1Cn1cc(SCC(=O)NCc2ccco2)c2ccccc21,1.17
24,CCOc1ccc(NC(=O)C2CC(=O)N(c3ccc(C)cc3)C2)cc1 (stereo not drawn),-0.28
25,CCN(CC)CCCNC(=O)c1cc(-c2ccc(Cl)cc2)on1,-2.65

row,Compound,% Inhibition @ 10 uM [%]
1,Cc1ccc(Cn2c(C)c(CNC(C)CCc3ccccc3)c(C(=O)O)c2C)cc1 (stereo not drawn),-0.23
2,Cc1cc(-c2ccc(Br)cc2)c(C#N)c(N)n1,2.05
3,CCc1c(C)sc(NC(=O)C2c3ccccc3Oc3ccccc32)c1C(N)=O,-4.41
4,CN(C)c1ccc(CN2CCCCCCC2)cc1,2.47
5,CCCCNC(=O)Cn1ccc2ccccc2c1=O,-2.4
6,COc1ccc(C2C=C(C)Nc3nc(SC)nn32)cc1 (stereo not drawn),-1.62
7,Cn1c2ccccc2n2nc3ncnc(O)c3c12,-0.597
8,COc1cc(/C=C2/SC(Nc3ccccc3F)=NC2=O)ccc1OCC(=O)O,1.8
9,CC(=O)N[C@@H](Cc1cc(I)c(O)c(I)c1)C(=O)NCC#N,3.19
10,CCCNC(=O)N(Cc1nc(-c2ccc(OC)cc2)no1)C1CCCCC1,0.00706
11,CC1=CC(=C2C(=O)c3ccccc3C2=O)C=C(C)N1CCO,0.343
12,O=C(O)CNC(=O)/C(=C/c1ccccc1)NC(=O)c1ccc(Br)o1,4
13,C=CCNC(=O)c1cnn2c(C(F)F)cc(-c3ccc(OC)cc3)nc12,-4.31
14,CCN(CC)Cc1c[nH]c2c(C(=O)OC)cccc12,1.74
15,CNC(=O)CCc1ccc(S(=O)(=O)NCC(C)C)cc1,0.727
16,O=C(Cn1ncn2nc(-c3cccs3)cc2c1=O)NCc1cccc(Cl)c1,-4.68
17,CC1(C)CC(/N=c2\cc(-c3ccccc3)oc3ccc(Cl)cc23)CC(C)(C)N1,2.24
18,CSc1ccccc1-c1cccc(C(=O)N[C@@H](CC(C)C)C(=O)NCC#N)c1,-6.98
19,CC(=O)N1CCN(C2CC3CCC2C3)CC1 (stereo not drawn),-1.81
20,C=CCNC(=O)/C(C#N)=C/c1c(Oc2ccc(Cl)c(C)c2)nc2ccccn2c1=O,-2.92
21,Cc1cccn2c(=O)c3cc(S(=O)(=O)c4ccc(Cl)cc4)c(=N)n(CC4CCCO4)c3nc12 (stereo not drawn),-3.33
22,N#Cc1c(NC(=O)c2c(F)cccc2F)sc2c1CCCC2,1.01
23,Cc1cc(Cl)ccc1N(C)C(=O)c1cnn(-c2ccccc2)c1C,1.59
24,Cc1ccc(CCNC(=O)CCCNS(=O)(=O)c2cccc3nsnc23)cc1,-1.43
25,COc1ccc(/C=C2\SC(=O)N(CC(=O)Nc3ccccc3F)C2=O)cc1,-1.28

row,Compound,% Inhibition @ 10 uM [%]
1,O=C(NCCOc1ccccc1Cl)C(=O)NCCOc1ccccc1Cl,3.39
2,CC(=O)Nc1sc2c(c1C#N)CCC2,6.47
3,Cc1cc(C)nc(Nc2n[nH]c(C)n2)n1,-4.78
4,CCN(CC)CCCNC(=O)CNC(=O)Cn1cnc2sc(C)c(C)c2c1=O,2.8
5,CCOC(=O)c1sc2nc(C)cc(C)c2c1N(C(C)=O)C(C)=O,-3.06
6,C=CCc1cc(/C=C2/NC(=O)N(Cc3ccc(F)cc3)C2=O)cc(OCC)c1O,-0.386
7,CCOc1ccc(N2C(=O)NC(=O)/C(=C/c3ccc(C)cc3)C2=O)cc1,0.299
8,CSc1nc2sc3c(c2c2nnnn12)CCN(C)C3,-0.267
9,CCN(CC)CCCNC(=O)C1CCN(c2nn3cc(-c4ccc(C)cc4)nc3s2)CC1,4.19
10,COc1ccccc1C(=O)Nc1ccc(-c2nc3cc(Cl)ccc3o2)cc1,0.467
11,CC1=C(C(=O)Nc2ccccc2C)C(c2ccc(Br)cc2)NC(=O)N1 (stereo not drawn),-2.84
12,CS(=O)(=O)N1CCN(CCN2C(=O)c3cccc4cccc(c34)C2=O)CC1,6.48
13,Cc1ccc2cc3c(NCc4ccc(F)cc4Cl)[nH]nc3nc2c1,4.33
14,NC(=O)c1conc1-c1ccc(Cl)cc1Cl,-0.711
15,COc1ccc(/C=c2\s/c(=C/C(=O)c3ccc(C)cc3)[nH]c2=O)c(OC)c1,0.189
16,O[C@H]1CC[C@H](NC2CCCCCC2)CC1,-0.233
17,CC(CCCC(C)(C)O)NC(C)Cc1ccc(F)cc1 (stereo not drawn),4.68
18,CC(C)C[C@H](NC(=O)c1ccc(-c2ccc(NS(C)(=O)=O)cc2)cc1)C(=O)NCC#N,-0.207
19,O=C(C(Cc1ccccc1)n1cccc1)N1CCN(c2ccccn2)CC1 (stereo not drawn),0.981
20,CCO/C(O)=C1\C(C)=NC2=C(C(=O)CC(C)(C)C2)C1c1cc(Br)c(C)s1 (stereo not drawn),-8.7
21,Cc1nc2c(-c3ccc(Cl)cc3)cnn2c(O)c1Cc1ccccc1,3.16
22,CCCCSc1nnc2n(/N=C/c3ccc(O)c(OC)c3)cnn12,1.76
23,NC(=O)C1CCN(C2C3CC4CC(C3)CC2C4)CC1 (stereo not drawn),0.472
24,N#CC1=C(N)Oc2cc(O)ccc2C1c1ccc(F)cc1 (stereo not drawn),-2.51
25,Cc1sc2ncn(CC(=O)NCCCC(=O)NCc3ccc(F)cc3)c(=O)c2c1C,5.88

row,Compound,% Inhibition @ 10 uM [%]
1,CC(NC(=S)c1cccnc1)c1ccccc1 (stereo not drawn),-1.93
2,COc1ccc(NC(=O)c2ccc(Cl)c(Cl)c2)c(OC)c1,-6.74
3,COc1ccc(CCNS(=O)(=O)c2cccs2)cc1,-4.79
4,Cc1ccccc1Cn1c(NCC2CCCO2)nc2c1c(=O)n(C)c(=O)n2C (stereo not drawn),18.4
5,CCc1ccccc1NC(=O)/C=C/c1ccc(C(C)C)cc1,1.48
6,CCC(C)N(CCNc1ncnc2onc(C)c12)Cc1ccco1 (stereo not drawn),10.3
7,COc1ccc(-c2cc(=O)oc3c(C)c4c(cc23)CN(Cc2ccco2)CO4)cc1,-0.808
8,COc1cc(C2(c3ccc(N)c(OC)c3)CCCCC2)ccc1N,-2.02
9,Cc1coc2cc3oc(=O)c(CCC(=O)NCc4ccccc4)c(C)c3cc12,4.13
10,Cc1sc(NC(=O)C2C3CCC(C3)C2C(=O)O)c(C(N)=O)c1-c1ccc(C(C)(C)C)cc1 (stereo not drawn),18.4
11,CCN(CC)C(=O)Cn1cc(S(=O)(=O)Cc2cc(C)ccc2C)c2ccccc21,0.292
12,CN1C(=O)C(O)(CC(=O)c2ccco2)c2cc(Br)ccc21 (stereo not drawn),0.583
13,Cc1cccc(Oc2ccc(NC(=O)c3ccccc3C(=O)O)cc2)c1,-8.92
14,Cc1cccc(NC(=O)C2CCN(S(=O)(=O)c3cccc4nsnc34)CC2)n1,-5.22
15,COc1ccc(NC(=O)CN(c2cc(Cl)cc(Cl)c2)S(C)(=O)=O)cc1OC,7.34
16,COc1cc(CNCc2c(C(=O)O)n(Cc3ccc(Cl)cc3)c3ccccc23)cc(OC)c1OC,3.61
17,NC(=O)C1CCN(c2c3c(nc4nncn24)CCC3)CC1,0.895
18,Cc1nc2nc(NC(=O)C(C)C)nn2c(C)c1Cl,-1.53
19,CC(=O)N1c2ccccc2N=C2CC(C)(C)CC(O)=C2C1c1cccc(Cl)c1 (stereo not drawn),-5.79
20,Cc1[nH]nc2c1C(c1c(OCc3ccccc3)ccc3ccccc13)C(C#N)=C(N)O2 (stereo not drawn),-0.413
21,N#Cc1c(-c2ccccc2)cc(-c2ccccc2)nc1N1CCCCC1,-5.65
22,COc1ccc(-c2cc(-c3ccccc3)nc(SC(C(N)=O)c3ccccc3)c2C#N)cc1 (stereo not drawn),3.01
23,CC(C)NC(=O)C(=O)NCc1ccncc1,-0.0829
24,O=C(Nc1ccc(Cl)cc1)Nc1cc([N+](=O)[O-])ccc1F,0.0792
